Assay results as given in patent publication US10485854B2, “Method of reducing biofilms” (Lysando AG, priority 2010, dated 2019).

System: P. pastoris X33 cells
Protocol: The open reading frame encoding POLY-gp144 (SEQ ID NO: 35) was cloned in the pPICZαA shuttle vector (Invitrogen), which was subsequently integrated in the P. pastoris genome by homologous recombination (as indicated by the manufacturer; P. pastoris X33 cells, Invitrogen). Gene expression was induced with methanol (1%) in BMMY-medium and the supernatant was analyzed for the presence of enzymatic activity after 1, 3 and 4 days. […] Subsequently, the optical density was spectrophotometrically recorded (FIG. 2). A drop in optical density indicates the secretion of a muralytic enzyme by P. pastoris. As a negative control, P. pastoris X33 without expression plasmid was included. Thus, the lysis of the substrate upon addition of the supernatants sample is a measure for successful recombinant production and secretion of POLY-gp144 (SEQ ID NO: 35) by P. pastoris.

B1: POLY-gp144: fusion protein SEQ ID NO: 35: endolysin phiKZgp144 (SEQ ID NO: 1) with N-terminal peptide KRKKRKKRK (SEQ ID NO: 11) (protein)
chain: MGSKRKKRKKRKKVLRKGDRGDEVCQLQTLLNLCGYDVGKPDGIFGNNTFNQVVKFQKDNCLDSDGIVGKNTWAELFSKYSPPIPYKTIPMPTANKSRAAATPVMNAVENATGVRSQLLLTFASIESAFDYEIKAKTSSATGWFQFLTGTWKTMIENYGMKYGVLTDPTGALRKDPRISALMGAELIKENMNILRPVLKREPTDTDLYLAHFFGPGAARRFLTTGQNELAATHFPKEAQANPSIFYNKDGSPKTIQEVYNLMDGKVAAHRK
modifications: POLY-gp144
Q: Which “toxic effect on the cell density of P. pastoris” value does the source give for B1 here?
A: No toxic effect
